The target in assay [1] is T1, Ccz1 used as partner of the Mon1A deletion mutants in Supplementary Fig. S2 (mouse) (UniProt Q8C1Y8).
T1 sequence: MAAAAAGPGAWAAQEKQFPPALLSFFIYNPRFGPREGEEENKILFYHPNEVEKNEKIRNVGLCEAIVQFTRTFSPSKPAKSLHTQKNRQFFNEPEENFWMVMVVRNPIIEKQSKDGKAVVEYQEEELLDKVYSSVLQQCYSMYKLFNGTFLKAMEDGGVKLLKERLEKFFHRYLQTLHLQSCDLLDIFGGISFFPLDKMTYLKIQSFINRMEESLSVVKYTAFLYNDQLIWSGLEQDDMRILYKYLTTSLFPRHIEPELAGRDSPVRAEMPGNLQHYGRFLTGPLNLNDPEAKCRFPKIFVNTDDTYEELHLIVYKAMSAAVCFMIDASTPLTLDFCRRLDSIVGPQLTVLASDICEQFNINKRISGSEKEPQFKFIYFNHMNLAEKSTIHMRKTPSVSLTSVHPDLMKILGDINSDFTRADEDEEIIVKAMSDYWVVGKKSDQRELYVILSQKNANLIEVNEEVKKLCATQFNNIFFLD
Kind of assay: co-IP; Supplementary Fig. S2: heterodimer formation of Mon1A and Ccz1 deletion mutants; co-precipitated V5-Mon1A signals compared with 5% input; set-up not told in the text shown.

The chains behind the UniProt entries cited, without tags or fusion partners. Where a name states a change or a piece, a line headed by the entry shows the natural chain unless it says otherwise.
UniProt P51150: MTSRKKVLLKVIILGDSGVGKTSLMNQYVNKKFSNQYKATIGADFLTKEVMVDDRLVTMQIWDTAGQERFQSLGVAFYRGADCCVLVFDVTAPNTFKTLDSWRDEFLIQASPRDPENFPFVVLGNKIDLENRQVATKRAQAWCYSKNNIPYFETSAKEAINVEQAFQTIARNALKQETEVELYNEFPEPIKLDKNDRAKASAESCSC

In assay [2] the target is FLAG-tagged a3C (carboxy-terminal half of a3, amino acids 387-834) (UniProt Q9JHF5). Kind of assay: co-IP; FLAG- and V5-tagged proteins co-expressed in HEK293T cells; lysed 48 h after transfection in IP buffer (1% Triton X-100, 10% glycerol, 50 mM Tris-HCl pH 7.4, 150 mM NaCl, 1 mM dithiothreitol, 1 mM EDTA); precipitated with anti-FLAG antibody; western blot with anti-V5 (or anti-A subunit) antibody.

Assay [3] deals with T2, FLAG-a3N deletion mutant 214-386 (UniProt Q9JHF5).
T2 sequence: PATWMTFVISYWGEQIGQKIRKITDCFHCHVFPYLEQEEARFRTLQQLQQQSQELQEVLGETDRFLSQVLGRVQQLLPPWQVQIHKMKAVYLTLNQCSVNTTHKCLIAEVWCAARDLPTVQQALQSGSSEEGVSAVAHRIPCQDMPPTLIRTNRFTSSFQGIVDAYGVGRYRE
The assay is described as above.

The target in assay [4] is T3, Ccz1 deletion mutant 38-250 used for heterodimer formation in Supplementary Fig. S2 (mouse) (UniProt Q8C1Y8).
T3 sequence: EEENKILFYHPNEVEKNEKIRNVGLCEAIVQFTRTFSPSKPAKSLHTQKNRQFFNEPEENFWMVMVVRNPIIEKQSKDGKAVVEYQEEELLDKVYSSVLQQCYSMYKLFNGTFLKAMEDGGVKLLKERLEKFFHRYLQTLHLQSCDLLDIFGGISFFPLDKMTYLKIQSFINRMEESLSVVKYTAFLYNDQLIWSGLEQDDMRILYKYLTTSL
Kind of assay: co-IP; Supplementary Fig. S2: heterodimer formation of Mon1A and Ccz1 deletion mutants; co-precipitated V5-Mon1A signals compared with 5% input; set-up not told in the text shown.

Assay [5] addresses T4, FLAG-Ccz1 mutant of segment 1-180 (mouse) (UniProt Q8C1Y8).
T4 sequence: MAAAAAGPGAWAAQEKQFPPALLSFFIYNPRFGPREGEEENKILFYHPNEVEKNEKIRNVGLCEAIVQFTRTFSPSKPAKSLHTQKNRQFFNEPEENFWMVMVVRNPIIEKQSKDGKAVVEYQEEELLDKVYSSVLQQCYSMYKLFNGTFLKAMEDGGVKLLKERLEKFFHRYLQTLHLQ
Kind of assay: co-IP; FLAG- and V5-tagged proteins co-expressed in HEK293T cells; lysed 48 h after transfection in IP buffer (1% Triton X-100, 10% glycerol, 50 mM Tris-HCl pH 7.4, 150 mM NaCl, 1 mM dithiothreitol, 1 mM EDTA); precipitated with anti-FLAG antibody; western blot with anti-V5 (or anti-A subunit) antibody. A general note: A western blot detects proteins with antibodies after separation by electrophoresis.

Assay [6] deals with FLAG-tagged GDP-fixed Rab7(T22N) (UniProt P51150). Described as above.
The target of assay [7] is T5, FLAG-Ccz1 mutant of segment 1-250 (mouse) (UniProt Q8C1Y8).
T5 sequence: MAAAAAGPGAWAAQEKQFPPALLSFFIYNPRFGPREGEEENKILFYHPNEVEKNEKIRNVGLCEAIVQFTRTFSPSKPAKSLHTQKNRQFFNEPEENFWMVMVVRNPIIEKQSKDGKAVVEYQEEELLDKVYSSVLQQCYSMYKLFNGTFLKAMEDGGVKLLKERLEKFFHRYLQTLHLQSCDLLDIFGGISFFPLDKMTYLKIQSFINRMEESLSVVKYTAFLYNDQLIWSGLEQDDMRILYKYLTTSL
The assay is described as above.

Residue numbers refer to the chain shown, from its start. Names may count otherwise. No constants are given. Whether binding was seen depends on the method and setting. Binding seen in cells or lysates may run through a third protein. Some results given as binding are weak or reduced against the parent protein; the word gives no strength. Where a sequence is shown, tags or fusion partners need not be part of it.

B1: V5-Mon1A deletion mutant 1-246 (domain or fragment, UniProt Q6PDG8 1-246)
chain: MAADMQRKRSSECPEGTLAPSNGQSVERAESPTPGLTQGTEPGAGQEGAMFVHTRSYEDLTELEDREASGDSPKECVGSPPPLATDMRQISQDFSELSTQLTGVARDLQEEMLPGSSEDWPEPQGAAGRGAATEPSQEGSTEGEEEDATEAWRLHQKHVFVLSEAGKPVYSRYGSEEALSSTMGVMVALVSFLEADKNAIRSIHADGYKVVFVRRSPLVLVAVARTRQSAQELAQELLYIYYQILS
As for B1, in assay [1], the binding entry is reported as “binds”.

B2: V5-tagged Ccz1 (protein, UniProt Q8C1Y8 1-480)
chain: T1 sequence
In the case of B2, the binding entry is recorded as “no binding” in assay [2] and “binds” in assay [3].

B3: V5-tagged Mon1A (protein, UniProt Q6PDG8 1-556)
chain: MAADMQRKRSSECPEGTLAPSNGQSVERAESPTPGLTQGTEPGAGQEGAMFVHTRSYEDLTELEDREASGDSPKECVGSPPPLATDMRQISQDFSELSTQLTGVARDLQEEMLPGSSEDWPEPQGAAGRGAATEPSQEGSTEGEEEDATEAWRLHQKHVFVLSEAGKPVYSRYGSEEALSSTMGVMVALVSFLEADKNAIRSIHADGYKVVFVRRSPLVLVAVARTRQSAQELAQELLYIYYQILSLLTGAQLSHIFQQKQNYDLRRLLSGSERITDNLLQLMARDPSFLMGAARCLPLAAAVRDTVSASLQQARARSLVFSILLAHNQLVALVRRKDQFLHPIDLHLLFNLISSSSSFREGEAWTPVCLPKFNAAGFFHAHISYLEPDTDLCLLLISTDREDFFAVSDCRRRFQERLRKRGTHLALREALRTPYYSVAQVGIPDLRHFLYKSKSSGLFTSPEIEAPYSSEEEQERLLGLYQYLHSRAHNASRPLKTIYYTGPNENLLAWVTGAFELYMCYSPLGTKASAVSAIHKLMRWIRKEEDRLFILTPLTY
Take B3: the binding entry is listed as “binds” in assay [4]; “binds” in assay [5]; “binds” in assay [6]; “no binding” in assay [2]; “binds” in assay [7]; “binds” in assay [3].

B4: V5-Mon1A N262W/D264A/R266A (WAA) mutant (protein, UniProt Q6PDG8 1-556)
chain: B3 chain with N262W, D264A, R266A
For the molecule B4, in assay [6], the binding entry is reported as “binds”.

B5: V5-Mon1A G166P/K167D (PD) mutant (protein, UniProt Q6PDG8 1-556)
chain: B3 chain with G166P, K167D
Regarding B5, the binding entry in assay [6] is listed as “binds”.

The values above are taken from PMC9120031.
